The text below walks through data of paper PMC9980373 (Journal for Immunotherapy of Cancer, 2023).

In assay [1] the target is T1, human IL-2 receptor α subunit (human, UniProt P01589 22-240).
T1 sequence: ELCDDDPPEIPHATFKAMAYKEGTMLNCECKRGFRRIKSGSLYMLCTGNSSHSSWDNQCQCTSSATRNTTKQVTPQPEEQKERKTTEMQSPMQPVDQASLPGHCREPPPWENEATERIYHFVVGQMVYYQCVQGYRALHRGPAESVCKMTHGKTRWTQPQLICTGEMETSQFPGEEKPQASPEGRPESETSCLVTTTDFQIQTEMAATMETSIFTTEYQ
In words: ELISA.

Assay [2] has as its target T2, human IL-2 receptor β subunit (human, UniProt P14784 27-240).
T2 sequence: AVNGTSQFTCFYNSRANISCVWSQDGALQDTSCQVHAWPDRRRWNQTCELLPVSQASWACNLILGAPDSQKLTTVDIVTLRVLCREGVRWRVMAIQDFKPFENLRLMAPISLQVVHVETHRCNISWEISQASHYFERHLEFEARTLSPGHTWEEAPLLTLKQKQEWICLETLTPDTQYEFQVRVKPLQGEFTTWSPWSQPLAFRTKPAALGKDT
In words: ELISA.

B1: human wild-type IL-2 with LPETG-tag and histidine tag (ligand)
chain: not shown
As to B1, the EC50 in assay [1] is 13.5 nM; in assay [2] it was 1140 nM.

In general, EC50 refers to the concentration that produces a half-maximal response. A higher EC50 goes with a less potent agent.
